The source of these data is patent US6653442B1, “Protegrins” (priority 1993, dated 2003).

Bridge positions count the residues as written; N and C are the ends. Ends that are not written are not given here. Peptide text beside a SMILES is read from it.

Experiment [1] has as its system C. trachomatis serovar L2 (L2/434 Bu). The experiment is described as follows: Chlamydial culture system in McCoy cells. Conditions: for effectiveness against Chlamydia: 25 μg, two hours preincubation.
Experiment [2] deals with HSV-2 G and a pool of ten clinical HSV 2 isolates. The experiment is described as follows: Herpes simplex virus CPE assay, HSV-2.
For experiment [3], the system named is HSV 1 MacIntyre strain, a pool of ten clinical HSV 1 isolates. The experiment is described as follows: Herpes simplex virus CPE assay, HSV-1.

“HNP-2: native human defensin used as control (CYCRIPACIAGERRYGTCIYQGRLWAFCC; ends and bridges not checked; cysteine pairing not given here; UniProt P59665 66-94, looked up) [reference compound]”: the “reduction of number of inclusions from untreated controls” value in experiment [1] (25 μg added one hour into the 48-hour culture period) is recorded as “completely ineffective”. For the same compound, the “effectiveness against Chlamydia” value is given as “only marginally effective” in experiment [1] (with 10% FBS) and “reasonably effective” in experiment [1] (without serum).
Regarding `CC(C)C[C@H](NC(=O)[C@H](CCCNC(=N)N)NC(=O)CNC(=O)CNC(=O)[C@@H](N)CCCNC(=N)N)C(=O)N[C@H]1CSSC[C@@H](C(=O)N[C@H](C(=O)NCC(=O)N[C@@H](CCCNC(=N)N)C(N)=O)C(C)C)NC(=O)[C@H](C(C)C)NC(=O)[C@@H]2CSSC[C@H](NC(=O)[C@H](Cc3ccc(O)cc3)NC1=O)C(=O)N[C@@H](CCCNC(=N)N)C(=O)N[C@@H](CCCNC(=N)N)C(=O)N[C@@H](CCCNC(=N)N)C(=O)N[C@@H](Cc1ccccc1)C(=O)N2` [PG-1, R-G-G-R-L-C-Y-C-R-R-R-F-C-V-C-V-G-R], the “Activity against human STD pathogens: Herpes simplex type 2” value in experiment [2] was “Moderately”. Also, the “cytopathic effect (CPE) by HSV-2 G” value is “completely prevented CPE” in experiment [2] (delayed peptide addition format, 35 μg/ml and 50 μg/ml); “completely prevented” in experiment [2] (direct neutralization format, W138 and CCL57 cells, 50 μg/ml and 25 μg/ml). The “protection against the clinical HSV-2 pool” value in experiment [2] (delayed peptide addition format, both concentrations) is recorded as “fully protected”. The “Activity against human STD pathogens: Herpes simplex type 1” value in experiment [3] is on record as “Inactive”. In experiment [3] (direct neutralization format, 50 μg/ml and 25 μg/ml, 4 + CPE), the “protection against HSV-1 CPE” value was “no protection”. In experiment [1], the “Activity against human STD pathogens: Chlamydia trachomatis” value is on record as “Active”.
As for `CC[C@H](C)[C@@H]1NC(=O)[C@H](CCCNC(=N)N)NC(=O)[C@@H]2CSSC[C@@H]3NC(=O)[C@H](C)NC(=O)[C@@H](NC(=O)[C@@H](NC(=O)[C@@H](N)C(C)C)C(C)C)CSSC[C@@H](C(=O)N[C@@H](CCCNC(=N)N)C(=O)N[C@@H](CCCNC(=N)N)C(=O)O)NC(=O)[C@H](CSSC[C@H](NC(=O)[C@H](CC(C)C)NC(=O)[C@H](C)NC(=O)[C@H](CCCNC(=N)N)NC(=O)[C@H](CCCNC(=N)N)NC3=O)C(=O)N[C@@H](CC(C)C)C(=O)N3CCC[C@H]3C(=O)N[C@@H](CCCNC(=N)N)C(=O)N[C@@H](CCC(=O)O)C(=O)N[C@@H](CCCNC(=N)N)C(=O)N[C@@H](CCCNC(=N)N)C(=O)N[C@@H](C)C(=O)NCC(=O)N[C@@H](Cc3ccccc3)C(=O)N2)NC(=O)[C@H](CC(C)C)NC(=O)[C@@H]2CCCN2C(=O)[C@H](Cc2c[nH]cn2)NC(=O)[C@H]([C@@H](C)CC)NC(=O)[C@H](CCCNC(=N)N)NC(=O)CNC(=O)[C@H](CCCNC(=N)N)NC1=O` [NP-1, reference compound] (H-VVCACRRALCLPRERRAGFCRIRGRIHPLCCRR-OH; disulfide 3-31, 5-20, 10-30; N-terminus and C-terminus assumed), the “protective effect against chlamydial inclusions” value in experiment [1] (initial assays, amount not stated) is listed as “lesser protective effects”.
